{"source": "PubChem BioAssay AID588795", "about": "(National Center for Advancing Translational Sciences (NCATS), 2011)", "note": "In all, about 390,000 compounds went through this assay and about 1,400 (0.36%) were called active. Inconclusive means that the source gave no clear call. Such entries were picked first, then a sample of the others. Calls follow the shape of the dose curve; as a rule, active = well fitted inhibition curve with a large enough effect; inconclusive = small, poorly fitted or top-dose-only effect; inactive = no such curve, though single readings can be large or run the other way. Where the call is inconclusive, the potency comes from a doubtful curve fit. Potency is read from the fitted curve at half-maximal effect; tags tell the direction and shape of the fitted curve."}
{"target": "Flap endonuclease 1 (Homo sapiens) (UniProt P39748)", "sequence (P39748 whole entry, looked up)": "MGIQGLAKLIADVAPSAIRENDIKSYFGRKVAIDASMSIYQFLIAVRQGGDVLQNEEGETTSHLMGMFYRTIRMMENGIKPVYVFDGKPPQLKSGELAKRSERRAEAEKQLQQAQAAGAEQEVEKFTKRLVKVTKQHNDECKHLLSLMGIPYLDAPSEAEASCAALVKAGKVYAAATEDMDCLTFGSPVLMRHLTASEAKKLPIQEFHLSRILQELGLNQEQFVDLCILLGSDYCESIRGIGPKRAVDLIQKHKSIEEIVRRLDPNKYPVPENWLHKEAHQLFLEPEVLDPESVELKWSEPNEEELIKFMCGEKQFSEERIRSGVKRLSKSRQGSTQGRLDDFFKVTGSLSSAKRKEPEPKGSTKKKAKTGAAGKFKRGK", "assay": "qHTS Assay for the Inhibitors of Human Flap endonuclease 1 (FEN1); also: nearly all actives have a fitted effect of over 65% in size.", "conditions": "Recombinant FEN1 flap cleavage, fluorescence, 15 min; series mostly up to 114 µM", "procedure,_shortened": "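Steps: FEN1 (10 nM) dispensed; compound added by pin tool; 15 min at room temperature; substrate added to 50 nM final; reads at 0 min and 15 min; data normalized and fitted (four-parameter Hill).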"}
{"compound": "CCOC(=O)Cc1csc(-n2sc3ccccc3c2=O)n1", "Potency": "inconclusive: 20 µM [inhibitor, partial curve, poor fit]"}
{"compound": "Cc1cc2[nH]c3c4ccccc4nc(C)c3c2cc1C", "Potency": "inconclusive: 7.94 µM [inhibitor, full curve, poor fit]"}
{"compound": "CCC(C)Sc1ccc([C@H]2N[C@@](Cc3ccccc3)(C(=O)OC)[C@H]3C(=O)N(C)C(=O)[C@@H]23)cc1", "note": "(stereo not given in full)", "Potency": "inconclusive: 89.1 µM [inhibitor, partial curve, poor fit]"}
{"compound": "Cc1ccc(S(=O)(=O)c2c(N)n(CCC(C)C)c3nc4ccccc4nc23)cc1", "Potency": "inconclusive: 89.1 µM [inhibitor, single point]"}
{"compound": "Cc1ccccc1NC(=O)NCCN1C(=O)C2C3C=CC(C3)C2C1=O", "note": "(stereo not given)", "Potency": "inactive"}
{"compound": "C#CCOCCOCCOCCNc1nc(N2CCN(C(=O)CCCCCCCCCCNC(=O)[C@H](CO)n3cc(CCCSC)nn3)CC2)nc(N2CCN(C(=O)CCCCCCCCCCNC(=O)[C@H](CCCCN)n3cc(CCO)nn3)CC2)n1", "Potency": "inconclusive: 89.1 µM [inhibitor, single point]"}
{"compound": "CC(C(=O)Nc1ccccc1C(F)(F)F)n1nc(-c2ccccc2)c2c(c1=O)CCCC2", "note": "(stereo not given)", "Potency": "inactive"}
{"compound": "Cc1csc(SCC(=O)Nc2cc(C(C)(C)C)nn2-c2ccccc2)n1", "Potency": "inconclusive: 79.4 µM [inhibitor, partial curve, poor fit]"}
{"compound": "CCOc1ccc(S(=O)(=O)NC(C)(C)C)cc1-c1nc2c(C(C)(C)C)nn(C)c2c(=O)[nH]1", "Potency": "inconclusive: 44.7 µM [inhibitor, partial curve, poor fit]"}
{"compound": "COc1ccc(CC(=O)OCC(=O)Nc2ncc(Cl)cc2Cl)cc1OC", "Potency": "inactive"}
{"compound": "O=c1cc(-c2ccc(O)cc2)oc2ccc(O)cc12", "Potency": "inconclusive: 89.1 µM [inhibitor, partial curve, poor fit]"}
{"compound": "Cc1ccc(C(=O)NC2(C(F)(F)F)C(=O)Nc3c2c(=O)[nH]c(=O)n3CCc2ccccc2)cc1", "note": "(stereo not given)", "Potency": "inactive"}
{"compound": "COc1ccc(OC)c(S(=O)(=O)N(C(C)=O)c2ccc3oc(=O)sc3c2)c1", "Potency": "inactive"}
{"compound": "CCOC(=O)c1ccc(CC(=O)c2ccc(O)cc2O)o1", "Potency": "inactive"}
{"compound": "Cc1c(C(=O)N2CCC(C(=O)Nc3ccc(F)cc3)CC2)sc2nc[nH]c(=O)c12", "Potency": "inactive"}
{"compound": "O=C(Nc1ccc(N=Nc2ccccc2)c(NC(=O)C2CCCO2)c1)C1CCCO1", "note": "(stereo not given)", "Potency": "inconclusive: 79.4 µM [inhibitor, partial curve, poor fit]"}
{"compound": "CCOC(=O)C1=C(C)N=c2s/c(=C\\c3ccc(OCC(=O)O)cc3)c(=O)n2C1c1ccc(Cl)cc1", "note": "(stereo not given)", "Potency": "inconclusive: 35.5 µM [inhibitor, full curve]"}
{"compound": "O=C(CCc1ccc(O)cc1)c1c(O)cc(O)cc1O", "Potency": "inconclusive: 25.1 µM [inhibitor, partial curve, poor fit]"}
{"compound": "COc1ccc(N=Cc2c(O)n(-c3cccc(C)n3)c(=O)c3ccccc23)cc1", "Potency": "inconclusive: 39.8 µM [inhibitor, partial curve, poor fit]"}
{"compound": "Cc1c(OC(C)C(=O)NC(Cc2c[nH]c3ccc(O)cc23)C(=O)O)ccc2c1oc(=O)c1ccccc12", "note": "(stereo not given)", "Potency": "inconclusive: 31.6 µM [inhibitor, full curve]"}
{"compound": "O=C(CSc1nnc(-c2cccc(S(=O)(=O)N3CCCC3)c2)n1-c1ccccc1)Nc1ccc(C(=O)O)cc1", "Potency": "inconclusive: 56.2 µM [inhibitor, partial curve, poor fit]"}
{"compound": "CCOc1cc(/C=C2\\SC(=Nc3ccc(CC)cc3)NC2=O)ccc1OCC(=O)O", "Potency": "inconclusive: 50.1 µM [inhibitor, partial curve, poor fit]"}
{"compound": "COc1ccc(S(=O)(=O)N2CCC(C(=O)N3CCCC3)CC2)cc1", "Potency": "inactive"}
{"compound": "Cc1ccc(NC(=O)c2cccc(C(=O)Nc3ccc(C)cc3C(=O)O)c2)c(C(=O)O)c1", "Potency": "inconclusive: 39.8 µM [inhibitor, full curve]"}
{"compound": "COc1cc(OC)c(OC)cc1/C=C1\\CC(C)C/C(=C\\c2cc(OC)c(OC)cc2OC)C1=O", "note": "(stereo not given)", "Potency": "inconclusive: 8.91 µM [inhibitor, partial curve, poor fit]"}
{"compound": "COc1ccccc1/C=C1/C(=O)N(c2ccccc2)N=C1C", "Potency": "inconclusive: 79.4 µM [inhibitor, partial curve, poor fit]"}
{"compound": "Cc1cc(C)cc(N2CN=c3s/c(=C\\c4ccco4)c(=O)n3C2)c1", "Potency": "inactive"}
{"compound": "CCOc1ccc(C(C(=O)NC2CCCCC2)N(C(=O)Cc2cccs2)c2ccc(-n3cnnn3)c(OC)c2)cc1", "note": "(stereo not given)", "Potency": "inactive"}
{"compound": "CC(=O)c1ccccc1NS(C)(=O)=O", "Potency": "inactive"}
{"compound": "CCCCOC(=O)c1ccc(NC(=O)Cc2coc3ccc(C(C)C)cc23)cc1", "Potency": "inconclusive: 20 µM [inhibitor, partial curve, poor fit]"}
{"compound": "O=C(Nc1ccc2nc(-c3ccco3)c(-c3ccco3)nc2c1)N1CCN(c2ccccn2)CC1", "Potency": "inconclusive: 56.2 µM [inhibitor, partial curve]"}
{"compound": "CCOc1ccccc1N(C)C(=O)CCS(=O)(=O)c1ccc2c(c1)NC(=O)C(C)S2", "note": "(stereo not given)", "Potency": "inactive"}
{"compound": "Cc1[nH]c2ccccc2c1/C=N/NC(=O)c1cc(-c2cccs2)[nH]n1", "Potency": "inconclusive: 39.8 µM [inhibitor, single point]"}
{"compound": "COc1ccc(NC(=S)Nc2ccc3nsnc3c2)cc1", "Potency": "inconclusive: 70.8 µM [inhibitor, single point]"}
{"compound": "O=C(O)CCc1ccc(-c2cccs2)n1CCc1ccccc1", "Potency": "inactive"}
{"compound": "CCC(CO)Oc1cc(NCc2ccccc2Cl)c2ncn(C(C)C)c2c1", "note": "(stereo not given)", "Potency": "inconclusive: 50.1 µM [inhibitor, partial curve, poor fit]"}
{"compound": "COc1cc(/C=C/C(=O)c2ccc(Cl)s2)cc(OC)c1O", "Potency": "inconclusive: 50.1 µM [inhibitor, partial curve, poor fit]"}
{"compound": "CCN=C1S/C(=C/c2ccc(-c3ccc(Cl)cc3C(=O)O)o2)C(=O)N1CC", "Potency": "inconclusive: 89.1 µM [inhibitor, partial curve, poor fit]"}
{"compound": "C=CC[C@@H](CC(=O)N(CCO)Cc1ccccc1)C(=O)N[C@H](COC(=O)[C@@H](CC=C)Cc1ccc(F)cc1)c1ccccc1", "Potency": "inconclusive: 39.8 µM [inhibitor, partial curve, poor fit]"}
{"compound": "COP(=O)(OC)c1ccc(NCc2cc(O)ccc2O)cc1", "Potency": "active: 79.4 µM"}
{"compound": "Cc1ccc(C2C(C#N)=C(N)Oc3c2c(=O)n(C)c(=O)n3C)cc1", "note": "(stereo not given)", "Potency": "inactive"}
{"compound": "Cc1cccn2c(=O)c3cc(C(=O)NC(C)c4ccccc4)c(=N)n(CCCn4ccnc4)c3nc12", "note": "(stereo not given)", "Potency": "inconclusive: 50.1 µM [inhibitor, partial curve]"}
{"compound": "COc1ccc(OC)c(/C=N/NC(=O)c2cc3c(OC)c(OC)ccc3[nH]2)c1", "Potency": "inconclusive: 2.82 µM [inhibitor, partial curve, poor fit]"}
{"compound": "Cc1cccc(C)c1NC(=O)CN1C(=O)S/C(=C\\c2cccn2-c2cccc(C(=O)O)c2)C1=O", "Potency": "active: 50.1 µM"}
{"compound": "Cc1cnc2ccc(I)cc2c1/C=C/c1ccc(N(C)C)cc1", "Potency": "inactive"}
{"compound": "OC[C@H](S)CS", "Potency": "inconclusive: 89.1 µM [inhibitor, single point]"}
{"compound": "CC(C)CCOc1ccc(C(=O)Nc2sc3c(c2C#N)CCCCC3)cc1", "Potency": "inconclusive: 100 µM [inhibitor, partial curve, poor fit]"}
{"compound": "O=C(Nc1ccc(F)cc1)[C@H](Cc1ccccc1)N1Cc2ccccc2C1=O", "Potency": "inactive"}
{"compound": "CCCCCn1c(CN2CCN(c3cccc(Cl)c3)CC2)nc2c1c(=O)[nH]c(=O)n2C", "Potency": "inconclusive: 22.4 µM [inhibitor, partial curve, poor fit]"}
{"compound": "COc1ccc(-c2nn(C)c3sc(C(=O)Nc4cccc(F)c4)cc23)cc1OC", "Potency": "inconclusive: 22.4 µM [inhibitor, full curve]"}
{"compound": "COc1ccc(C2N(c3ccc(C)cc3)CCN2c2ccc(C)cc2)cc1O", "Potency": "inconclusive: 89.1 µM [inhibitor, partial curve, poor fit]"}
{"compound": "CO[C@H]1/C=C\\O[C@@]2(C)Oc3c(C)c(O)c4c(O)c(c(C=NN5CCN(C6CCCC6)CC5)c(O)c4c3C2=O)NC(=O)C(C)=CC=C[C@H](C)[C@H](O)[C@@H](C)[C@@H](O)[C@@H](C)[C@H](OC(C)=O)[C@H]1C", "Potency": "inconclusive: 25.1 µM [inhibitor, partial curve, poor fit]"}
{"compound": "COc1cc(/C=C/c2ccnc3ccccc23)ccc1N(C)C", "Potency": "inconclusive: 89.1 µM [inhibitor, single point]"}
{"compound": "COc1ccc2cc(C(=O)NCc3ccco3)c(=Nc3ccc(C(=O)O)cc3)oc2c1", "Potency": "inconclusive: 89.1 µM [inhibitor, single point]"}
{"compound": "Cc1[nH]c2ccccc2c1N=Nc1ccccc1C(=O)O", "Potency": "inconclusive: 50.1 µM [inhibitor, partial curve]"}
{"compound": "Cc1cc(C(F)(F)F)nn1Cc1n[nH]c(=S)n1Cc1ccccc1", "Potency": "inactive"}
{"compound": "Cc1ccc(S(=O)(=O)NN2C(=O)/C(=C\\c3ccc(Cl)cc3)SC2=S)cc1", "Potency": "inconclusive: 79.4 µM [inhibitor, partial curve, poor fit]"}
{"compound": "O=C(CN1CCN(c2ccccc2O)CC1)Nc1ccccc1C(=O)NCCc1ccccc1", "Potency": "inconclusive: 22.4 µM [inhibitor, partial curve, poor fit]"}
{"compound": "CC(=O)Nc1ccc(S(=O)(=O)Nc2cccc(-c3nc4cc(C)ccc4o3)c2)cc1", "Potency": "inconclusive: 70.8 µM [inhibitor, partial curve, poor fit]"}
{"compound": "Cc1ccc(S(=O)(=O)c2c(N)n(Cc3ccco3)c3nc4ccccc4nc23)cc1", "Potency": "inconclusive: 44.7 µM [inhibitor, partial curve, poor fit]"}
